Assay results: PubChem BioAssay AID1240 (Sanford-Burnham Center for Chemical Genomics, 2008)
The campaign covered roughly 50,000 compounds. About 800 (1.6%) showed an effect of 50% or more. This is one part of the list.

target: Bcl-2-like protein 10 (Homo sapiens) (UniProt Q9HD36); assay: Phenotype converters, Bcl-B/TR3 peptide binding displacement, primary biochemical FP (AID 1240); details: GST-Bcl-B / FITC-TR3 peptide fluorescence polarization; stronger effect = higher value; compound at 3.75 mg/L;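 note: 0% = Bcl-B with tracer peptide and DMSO and 100% = tracer peptide lacking Bcl-B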
Sequence of UniProt Q9HD36 (Q9HD36 whole entry, looked up): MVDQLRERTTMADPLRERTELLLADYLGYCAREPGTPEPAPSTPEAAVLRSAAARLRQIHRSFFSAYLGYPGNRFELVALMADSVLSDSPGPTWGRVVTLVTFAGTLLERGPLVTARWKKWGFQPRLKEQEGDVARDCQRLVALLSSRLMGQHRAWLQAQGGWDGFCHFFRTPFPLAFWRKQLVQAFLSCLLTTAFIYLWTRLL

| Structure (SMILES) | displacement [%] |
| --- | --- |
| COc1ccc(/C=N\OCC(=O)Nc2oc(-c3ccccc3)c(-c3ccccc3)c2C#N)cc1 | -4.5 |
| CCOC(=O)c1c[nH]c2ccc(OCC)cc2c1=O | 7.9 |
| CC(=O)N1CCN(c2ccc(C(=O)c3cccc(F)c3)cc2)CC1 | 3 |
| Cc1ccc(-n2c(C)cc(/C=N/NC(=O)CN3CCOCC3)c2C)c(C)c1 | -47.1 |
| O=C(NCCN1CCOCC1)/C(=C/c1ccc(Cl)cc1)NC(=O)c1ccccc1 | -5.9 |
| CC(=O)N1c2ccc3ccccc3c2C2C=CCC2C1c1ccc(Br)cc1 (stereo not drawn) | 31.4 |
| CCCOc1ccc(C(=O)Nc2ccc(O)cc2C(=O)O)cc1 | -16.3 |
| COc1ccc(/C=C2\SC(=O)N(CC(=O)Nc3ccccc3Cl)C2=O)cc1 | 5.7 |
| O=C(COc1ccc(C2CCCCC2)cc1)Nc1ccccc1C(=O)O | -17.1 |
| COc1cc(C=C2C(=O)NC(=S)NC2=O)ccc1OCCOc1ccc(C(C)(C)C)cc1 | 4.4 |
| N/C(=N\OC(=O)CCc1ccccc1)c1cccnc1 | 0.9 |
| Cc1ccc(NCC(O)COc2ccc(OCC(O)CNc3ccc(C)c(C)c3)cc2)cc1C (stereo not drawn) | 2 |
| COc1ccc(-c2nc3ccccc3c(=O)n2-c2nc3ccccc3n2C)cc1 | -9.8 |
| CCOC(=O)c1ccc(N2NC(=O)/C(=C/c3cc(OC)c(O)c(OC)c3)C2=O)cc1 | 10.2 |
| COc1cc(/C=N/NC(=O)c2ccncc2)ccc1OC(=O)c1cccc(F)c1 | 17.1 |
| O=C(Nc1nnc(-c2ccco2)s1)c1cccc2ccccc12 | 15.6 |
| CC(C)c1ccc(NC(=O)c2ccc(N(C)S(=O)(=O)c3ccccc3)cc2)cc1 | 8.4 |
| N#C/C(=C\c1ccc(-c2ccc(Cl)cc2)o1)c1ccc(Cl)cc1 | 123 |
| CCc1ccc(/C(C)=N/Nc2nc(-c3ccccc3)nc(C)c2C)cc1 | -15.5 |
| CCOc1ccc(N2C(=O)/C(=C/c3ccccc3C(=O)O)SC2=S)cc1 | -6.1 |
| O=C(CN(Cc1ccccc1)S(=O)(=O)c1ccccc1)Nc1ccc(Oc2ccccc2)cc1 | 9.8 |
| COc1cc(OC)c(OC)cc1/C=N/NC(=O)c1cc(C)[nH]n1 | -9.4 |

| Structure (SMILES) | displacement [%] |
| --- | --- |
| COC(=O)c1c(C)oc2ccc(OCC(=O)c3ccc(Br)cc3)cc12 | 13.6 |
| COc1ccc(S(=O)(=O)N(CC(=O)NC2CCCCC2)c2cc(C)cc(C)c2)cc1OC | -0.9 |
| O=C(Cc1ccccc1)Nc1ccc(Br)cn1 | -1.2 |
| COc1ccc(NC(=O)C2c3ccccc3Oc3ccccc32)cc1 | 0.9 |
| CCCC(C)NC(=O)c1ccc([N+](=O)[O-])cc1 (stereo not drawn) | 1.4 |
| COc1cccc(NC(=S)NC(=O)c2cccs2)c1 | -2.1 |
| COc1cc(C2C(C(=O)OCCOc3ccccc3)=C(C)NC3=C2C(=O)CC(C)(C)C3)cc(Cl)c1O (stereo not drawn) | -5.4 |
| CCOC(=O)c1c(NC(=S)NC(=O)c2ccccc2)sc2c1CCC(C)C2 (stereo not drawn) | 14.8 |
| CCOC(=O)c1ccc(NC(=O)c2ccc3c(c2)OCO3)cc1 | -1.6 |
| O=C(Nc1ccc(Cc2ccncc2)cc1)c1cc(F)c(F)cc1Cl | -1.1 |
| COc1ccc(NC(=O)c2nn3c(c2Cl)NC(c2ccco2)CC3C(F)(F)F)cc1OC (stereo not drawn) | -1.6 |
| CC(=O)Nc1ccc(S(=O)(=O)Nc2cccc(C(=O)Nc3nccs3)c2)cc1 | -17.4 |
| O=C(/C=C/c1ccc(Br)cc1)NC(=S)NCCCN1CCOCC1 | 12.4 |
| CC(=O)c1ccc(OC(=O)c2ccc([N+](=O)[O-])cc2)cc1 | -3.5 |
| CC(=O)CC(=O)Nc1ccc2ccccc2c1 | 5.6 |
| Cc1ccc(NC2=NS(=O)(=O)c3cc([N+](=O)[O-])ccc32)cc1 | 13.1 |
| CC(C)C(=O)Nc1ccc(O)cc1C(=O)O | 8.5 |
| Cc1ccccc1OCC(=O)Nc1nc(-c2ccc(Br)cc2)cs1 | -1.9 |
| OCCNCCOc1ccc(Cl)cc1 | -5.7 |
| O=c1c(-c2ccc(Cl)cc2Cl)coc2c(CN3CCCCC3)c(O)ccc12 | -18.9 |
| O=C1c2ccccc2C(=O)N1c1ccc2nc(SCc3ccc([N+](=O)[O-])cc3)sc2c1 | -17.4 |
| COc1cc(C(=O)n2nc(C)cc2C)cc(OC)c1OC | 3.5 |

| Structure (SMILES) | displacement [%] |
| --- | --- |
| CCN=C(Nc1ccc2c(c1)OCO2)SC1CC(=O)N(c2cccc(Cl)c2)C1=O (stereo not drawn) | 4.8 |
| COc1ccc(CSc2nc(C)cc(=O)[nH]2)cc1 | 1.6 |
| COc1ccc2ccccc2c1-c1cc(C(=O)NN)[nH]n1 | 6.8 |
| CC(=O)Nc1cc([N+](=O)[O-])c(N(C)S(=O)(=O)c2ccccc2)c2ccccc12 | 0.5 |
| CCOC(=O)c1cc2n(n1)C(C(F)(F)F)CC(c1ccco1)N2 (stereo not drawn) | -0.1 |
| CC(=O)NC1=NC(=O)/C(=C\c2ccc(Cl)c(Cl)c2)S1 | -13.5 |
| O=C(NCC1(c2ccccc2)CCOCC1)C1(c2ccccc2)CCOCC1 | -8.5 |
| COc1ccccc1C(=O)Oc1ccc(C)c(C)c1 | 1.8 |
| Nn1c(SCC(=O)c2ccc(Cl)cc2)nc2ccccc2c1=O | 0.4 |
| O=C(O)COc1c(Cl)cc(/C=C2\C(=O)NC(=O)N(c3ccc(F)cc3)C2=O)cc1Cl | 8.1 |
| COc1ccc(NC(=S)NC(NC(=O)CC(C)C)C(Cl)(Cl)Cl)cc1OC (stereo not drawn) | -6.9 |
| CN(c1ccc(C(=O)Nc2cc(Cl)ccc2Cl)cc1)S(=O)(=O)c1ccccc1 | 5.8 |
| O=S(=O)(NOCc1ccccc1)c1ccccc1 | 2.2 |
| O=c1c(C2NCCC3(O)CCCCC23)coc2ccc(Cl)cc12 (stereo not drawn) | -4.7 |
| COc1cc(/C=C2\SC(=S)N(C(CCC(=O)O)C(=O)O)C2=O)ccc1O (stereo not drawn) | 6.4 |
| CCSC1=C(C#N)C(c2cccc3ccccc23)CC(=O)N1 (stereo not drawn) | 0 |
| c1cc(Nc2ncnc3sc4c(c23)CCC4)ccn1 | -12.6 |
| CCC(OC(=O)/C=C/c1ccco1)C(=O)Nc1ccc(S(N)(=O)=O)cc1 (stereo not drawn) | 14 |
| COc1ccc(C(=O)CCNc2ccc(C)cc2)cc1 | -8.1 |
| Cc1[nH]n(-c2ccccc2)c(=O)c1/C=N/N(C)C | 6.3 |
| CC1CN(CC(O)COc2ccccc2C(C)(C)C)CC(C)O1 (stereo not drawn) | 7.8 |
| CC(C)(C)c1csc(N/N=C/c2cccnc2)n1 | -7.2 |

| Structure (SMILES) | displacement [%] |
| --- | --- |
| c1csc(C2Nc3cccc4cccc(c34)N2)c1 | 32.9 |
| O=[N+]([O-])c1ccc(-n2ncnc2-c2cccc(Br)c2)c(Cl)c1 | 15.1 |
| COc1ccccc1N1CCN(/N=C\c2ccc(N(C)C)cc2)CC1 | -1 |
| Cc1cc(N2C(=O)NC(=O)/C(=C\c3ccc([N+](=O)[O-])o3)C2=O)ccc1Br | -14.2 |
| Cc1ccc2nc(-c3ccc(NC(=O)/C=C\C(=O)O)cc3)sc2c1 | 6.1 |
| COc1ccc(NC(=O)C2CC(=O)N(CCc3ccccc3)C(=Nc3ccccc3)S2)cc1 (stereo not drawn) | -7.4 |
| CN1C(=O)/C(=c2\sc3nc(-c4ccccc4)c(-c4ccccc4)n3c2=O)c2ccccc21 | 6.9 |
| Cc1cc(I)ccc1S(=O)(=O)N1CCN(C)CC1 | -7.4 |
| Cc1cc(N2C(=O)NC(=O)/C(=C\c3ccc(N4CCOCC4)o3)C2=O)ccc1Br | -33.9 |
| CCOC(=O)C(Cc1cc(C)c(CC(C(=O)OCC)C(=O)OCC)cc1C)C(=O)OCC | -8.7 |
| O=C1/C(=C\c2ccc(-c3ccccc3[N+](=O)[O-])o2)SC(=S)N1C1CCS(=O)(=O)C1 (stereo not drawn) | 31.8 |
| N#CC1=C(N)SC(N)=C(C#N)C1c1cccc(Cl)c1 | -31.8 |
| CCOC(=O)Oc1ccc2c(-c3ccccc3)cc(=O)oc2c1 | 10.5 |
| COc1ccc(C(=O)NCCCNc2ccc([N+](=O)[O-])cc2Cl)cc1OC | 10.1 |
| COC(=O)c1cc(C(=O)Nc2cc(OC)ccc2OC)cc([N+](=O)[O-])c1 | 12.7 |
| Cc1cccc(OCC(=O)Nc2ccccc2[N+](=O)[O-])c1C | -0.6 |
| Cc1cc(Cl)ccc1NC(=O)COc1ccc(Br)cc1 | -0.6 |
| N#C/C(=C\c1ccccc1C(F)(F)F)c1nn(CCO)c(N)c1C#N | -1.8 |
| O=C(COc1ccc(Cl)cc1)Nc1ccc2oc(-c3ccccc3F)nc2c1 | 6.6 |
| COc1ccc(/C=N/Nc2cc(OC)ncn2)cc1 | -5.1 |
| CC(C)(C)c1ccc(/C=N/NC(=O)Cc2cccc3ccccc23)cc1 | 15.7 |
| Cc1cc(N2CC(C)OC(C)C2)n2c(nc3ccccc32)c1C#N (stereo not drawn) | -6 |

| Structure (SMILES) | displacement [%] |
| --- | --- |
| COc1ccc(OC)c(S(=O)(=O)n2ccnc2C(C)C)c1 | 1.6 |
| COc1ccc(/C=C2/SC(=Nc3ccc(F)cc3)NC2=O)c(OC)c1 | 11.6 |
| COc1ccc(NC(=O)C(=O)NCc2ccc(C)cc2)cc1 | -0.8 |
| CC1CC(Nc2ccccc2)c2ccccc2N1C(=O)c1ccccc1 (stereo not drawn) | 5.9 |
| COC(=O)c1ccccc1NC(=O)CN(c1ccc(C)cc1)S(=O)(=O)c1ccc(F)cc1 | 11.7 |
| CCOC(=O)c1sc2nccc(N(C)C)c2c1N | -24.6 |
| COc1ccccc1C1/C(=C(/O)c2ccccc2)C(=O)C(=O)N1c1cccc(Br)c1 (stereo not drawn) | -10.1 |
| Cc1ccc(C=Nc2ccc3nc(-c4ccc(Cl)cc4Cl)[nH]c3c2)o1 | 13.4 |
| COC(=O)c1c(C)oc2ccc(OCc3ccc(Cl)cc3)cc12 | 5.2 |
| Cc1cccc(C(=O)Nc2cccc(Cl)c2C)c1 | -17.1 |
| CC1=NN(c2cccc(C(=O)O)c2)C(=O)/C1=C\c1ccc(-c2ccc3c(c2)COC3=O)o1 | 10 |
| COc1ccc(-c2cc(C(=O)N/N=C\c3ccc(C(C)C)cc3)[nH]n2)cc1 | -7.9 |
| CC1(C)CC(=O)C2=C(C1)OC(N)=C(C#N)C2c1c2ccccc2cc2ccccc12 (stereo not drawn) | -8.3 |
| COc1ccc(CCN2C(=O)CC(N3CCN(c4ccc(Cl)cc4)CC3)C2=O)cc1OC (stereo not drawn) | 1.2 |
| O=S1(=O)N=C(N2CCN(Cc3ccccc3)CC2)c2ccccc21 | 9.5 |
| CCOc1ccc(NC(=O)/C(=C/c2cccs2)NC(=O)c2cccs2)cc1 | -12.6 |
| CN=C(NC)SC1CC(=O)N(c2ccccc2)C1=O (stereo not drawn) | -6.7 |
| COc1ccc(N(CC(=O)NCc2ccccc2)S(C)(=O)=O)cc1Cl | 0.5 |
| Clc1ccc(-c2nc(-c3ccc(Br)cc3)no2)c(Cl)c1 | 2.7 |
| O=C(O)CCC(=O)Nc1ccc(S(=O)(=O)N2CCCCCC2)cc1 | 3 |
